Reference: PMC9911399, “Two distinct binding modes provide the RNA-binding protein RbFox with extraordinary sequence specificity”
Changes are numbered by the printed parent chain; changes in the protein carry UniProt numbers. The list shows a part of the results.

T1: RBFOX1 RRM (Homo sapiens, UniProt Q9NWB1 109-208)
T1 sequence: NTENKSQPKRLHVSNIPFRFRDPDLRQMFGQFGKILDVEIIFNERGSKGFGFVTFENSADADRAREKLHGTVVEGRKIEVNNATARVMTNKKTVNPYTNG

B1: CAUCACA (DNA:RNA)
RNA: GGGAGACCGGAAUUCAGAUUGUCCCAUCACAUUAAAUCCCGUCGUAGCCACCA
DNA 1: CAATCTGAATTCCGGTCTCCC
DNA 2: TGGTGGCTACGACGGGATT
B2: GGGUGUA (DNA:RNA)
RNA: B1 RNA with C25G, A26G, U27G, C28U, A29G, C30U
DNA 1: CAATCTGAATTCCGGTCTCCC
DNA 2: TGGTGGCTACGACGGGATT
B3: UACCCAG (DNA:RNA)
RNA: B1 RNA with C25U, U27C, A29C, C30A, A31G
DNA 1: CAATCTGAATTCCGGTCTCCC
DNA 2: TGGTGGCTACGACGGGATT
B4: GCAACUG (DNA:RNA)
RNA: GGGAGACCGGAAUUCAGAUUGUCCGCAACUGUUAAAUCCCGUCGUAGCCACCA
DNA 1: CAATCTGAATTCCGGTCTCCC
DNA 2: TGGTGGCTACGACGGGATT
B5: AGUGUGU (DNA:RNA)
RNA: B1 RNA with C25A, A26G, C28G, A29U, C30G, A31U
DNA 1: CAATCTGAATTCCGGTCTCCC
DNA 2: TGGTGGCTACGACGGGATT
B6: UAAAGCA (DNA:RNA)
RNA: B1 RNA with C25U, U27A, C28A, A29G
DNA 1: CAATCTGAATTCCGGTCTCCC
DNA 2: TGGTGGCTACGACGGGATT
B7: AAGACCU (DNA:RNA)
RNA: B1 RNA with C25A, U27G, C28A, A29C, A31U
DNA 1: CAATCTGAATTCCGGTCTCCC
DNA 2: TGGTGGCTACGACGGGATT
B8: UCGCAGC (DNA:RNA)
RNA: B1 RNA with C25U, A26C, U27G, C30G, A31C
DNA 1: CAATCTGAATTCCGGTCTCCC
DNA 2: TGGTGGCTACGACGGGATT
B9: AUCUGAU (DNA:RNA)
RNA: GGGAGACCGGAAUUCAGAUUGUCCAUCUGAUUUAAAUCCCGUCGUAGCCACCA
DNA 1: CAATCTGAATTCCGGTCTCCC
DNA 2: TGGTGGCTACGACGGGATT
B10: GGCCCUC (DNA:RNA)
RNA: B4 RNA with C26G, A27C, A28C, G31C
DNA 1: CAATCTGAATTCCGGTCTCCC
DNA 2: TGGTGGCTACGACGGGATT
B11: AUCUAGA (DNA:RNA)
RNA: B9 RNA with G29A, A30G, U31A
DNA 1: CAATCTGAATTCCGGTCTCCC
DNA 2: TGGTGGCTACGACGGGATT
B12: UAACCCC (DNA:RNA)
RNA: B1 RNA with C25U, U27A, A29C, A31C
DNA 1: CAATCTGAATTCCGGTCTCCC
DNA 2: TGGTGGCTACGACGGGATT
B13: GGGACAU (DNA:RNA)
RNA: B4 RNA with C26G, A27G, U30A, G31U
DNA 1: CAATCTGAATTCCGGTCTCCC
DNA 2: TGGTGGCTACGACGGGATT
B14: CAGAUCU (DNA:RNA)
RNA: B1 RNA with U27G, C28A, A29U, A31U
DNA 1: CAATCTGAATTCCGGTCTCCC
DNA 2: TGGTGGCTACGACGGGATT
B15: CGACGCU (DNA:RNA)
RNA: B1 RNA with A26G, U27A, A29G, A31U
DNA 1: CAATCTGAATTCCGGTCTCCC
DNA 2: TGGTGGCTACGACGGGATT
B16: AGCAAUA (DNA:RNA)
RNA: B9 RNA with U26G, U28A, G29A, A30U, U31A
DNA 1: CAATCTGAATTCCGGTCTCCC
DNA 2: TGGTGGCTACGACGGGATT
B17: CCAGACG (DNA:RNA)
RNA: B1 RNA with A26C, U27A, C28G, A31G
DNA 1: CAATCTGAATTCCGGTCTCCC
DNA 2: TGGTGGCTACGACGGGATT
B18: GCGCAGU (DNA:RNA)
RNA: B1 RNA with C25G, A26C, U27G, C30G, A31U
DNA 1: CAATCTGAATTCCGGTCTCCC
DNA 2: TGGTGGCTACGACGGGATT
B19: AACUCCA (DNA:RNA)
RNA: B9 RNA with U26A, G29C, A30C, U31A
DNA 1: CAATCTGAATTCCGGTCTCCC
DNA 2: TGGTGGCTACGACGGGATT
B20: CGAGAUC (DNA:RNA)
RNA: B1 RNA with A26G, U27A, C28G, C30U, A31C
DNA 1: CAATCTGAATTCCGGTCTCCC
DNA 2: TGGTGGCTACGACGGGATT
B21: ACGUACG (DNA:RNA)
RNA: B9 RNA with U26C, C27G, G29A, A30C, U31G
DNA 1: CAATCTGAATTCCGGTCTCCC
DNA 2: TGGTGGCTACGACGGGATT
B22: UAAAUCA (DNA:RNA)
RNA: B1 RNA with C25U, U27A, C28A, A29U
DNA 1: CAATCTGAATTCCGGTCTCCC
DNA 2: TGGTGGCTACGACGGGATT
B23: ACUUAGU (DNA:RNA)
RNA: B9 RNA with U26C, C27U, G29A, A30G
DNA 1: CAATCTGAATTCCGGTCTCCC
DNA 2: TGGTGGCTACGACGGGATT
B24: UGCGGUU (DNA:RNA)
RNA: B9 RNA with A25U, U26G, U28G, A30U
DNA 1: CAATCTGAATTCCGGTCTCCC
DNA 2: TGGTGGCTACGACGGGATT
B25: GUGGCAC (DNA:RNA)
RNA: B9 RNA with A25G, C27G, U28G, G29C, U31C
DNA 1: CAATCTGAATTCCGGTCTCCC
DNA 2: TGGTGGCTACGACGGGATT
B26: ACCCGAG (DNA:RNA)
RNA: B9 RNA with U26C, U28C, U31G
DNA 1: CAATCTGAATTCCGGTCTCCC
DNA 2: TGGTGGCTACGACGGGATT
B27: CCUGCUC (DNA:RNA)
RNA: B4 RNA with G25C, A27U, A28G, G31C
DNA 1: CAATCTGAATTCCGGTCTCCC
DNA 2: TGGTGGCTACGACGGGATT
B28: AGCGGCU (DNA:RNA)
RNA: B9 RNA with U26G, U28G, A30C
DNA 1: CAATCTGAATTCCGGTCTCCC
DNA 2: TGGTGGCTACGACGGGATT
B29: ACUCACG (DNA:RNA)
RNA: B1 RNA with C25A, A26C, A31G
DNA 1: CAATCTGAATTCCGGTCTCCC
DNA 2: TGGTGGCTACGACGGGATT
B30: AGAAAAC (DNA:RNA)
RNA: B9 RNA with U26G, C27A, U28A, G29A, U31C
DNA 1: CAATCTGAATTCCGGTCTCCC
DNA 2: TGGTGGCTACGACGGGATT
B31: GAUCUGA (DNA:RNA)
RNA: B1 RNA with C25G, A29U, C30G
DNA 1: CAATCTGAATTCCGGTCTCCC
DNA 2: TGGTGGCTACGACGGGATT

Each binder was assayed against T1, RBFOX1 RRM (assay: EMSA; HiTS-Eq, 1 nM pool, 10 min; buffer printed only for the single-RNA assays: 10 mM Tris pH 7.5, 150 mM NaCl, 3.4 mM EDTA, 0.001% NP-40, 30 C). Conditions: tags: His6 N-terminal (pET28a); label: 5' 32P.
Summary of the method: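 These values rest on relative association constants, computed from read-count changes of each RNA species versus the control reaction and normalised to the cognate motif. Reads came from free RNA recovered by 8% native PAGE after purified RbFox RRM (wild type or mutant) at increasing concentrations was equilibrated for 10 min in 50 µL with 1 nM of a 5′-radiolabelled pool with 7 randomized nucleotides and DNA-annealed flanks.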

| Binder | binding signal |
| --- | --- |
| B1 | 0.00119 KA relative to UGCAUGU |
| B2 | 0.0189 KA relative to UGCAUGU |
| B3 | 0.00348 KA relative to UGCAUGU |
| B4 | 0.0117 KA relative to UGCAUGU |
| B5 | 0.0155 KA relative to UGCAUGU |
| B6 | 0.0104 KA relative to UGCAUGU |
| B7 | 0.00276 KA relative to UGCAUGU |
| B8 | 0.0105 KA relative to UGCAUGU |
| B9 | 0.00644 KA relative to UGCAUGU |
| B10 | 0.0202 KA relative to UGCAUGU |
| B11 | 0.00837 KA relative to UGCAUGU |
| B12 | 0.00285 KA relative to UGCAUGU |
| B13 | 0.0188 KA relative to UGCAUGU |
| B14 | 0.00407 KA relative to UGCAUGU |
| B15 | 0.00774 KA relative to UGCAUGU |
| B16 | 0.00118 KA relative to UGCAUGU |

| Binder | binding signal |
| --- | --- |
| B17 | 0.0064 KA relative to UGCAUGU |
| B18 | 0.0136 KA relative to UGCAUGU |
| B19 | 0.000608 KA relative to UGCAUGU |
| B20 | 0.00911 KA relative to UGCAUGU |
| B21 | 0.0111 KA relative to UGCAUGU |
| B22 | 0.0059 KA relative to UGCAUGU |
| B23 | 0.0086 KA relative to UGCAUGU |
| B24 | 0.0229 KA relative to UGCAUGU |
| B25 | 0.0215 KA relative to UGCAUGU |
| B26 | 0.00135 KA relative to UGCAUGU |
| B27 | 0.0163 KA relative to UGCAUGU |
| B28 | 0.017 KA relative to UGCAUGU |
| B29 | 0.00217 KA relative to UGCAUGU |
| B30 | 0.00158 KA relative to UGCAUGU |
| B31 | 0.0265 KA relative to UGCAUGU |
